Experimental data reported in US20160108097A1 (UNITED STATES OF AMERICA AS REPRESENTED BY THE SECRETARY …, published 2016).

Target: HIV envelope glycoprotein gp120 (HIV)
Assay: ITC, 30 °C, lectin titrated into gp120

B1: griffithsin (GRFT), native domain-swapped dimer (other)
chain: not shown
notes: Lectin; Recombinant, expressed in E. coli; also called dGRFT; native GRFT
TΔS: -19.2 kcal/mol
ΔG: -11.2 kcal/mol
ΔH: -30.4 kcal/mol
